Results taken from PubChem BioAssay (NCI).
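Exposure lasted 48 hours, with cells grown in 96-well plates and compounds tested at five concentrations. At the TGI there is no net growth.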 Some entries of the source have several records that differ or are many. This list holds those alone. There may be further records. Records of one sample usually come from different ranges of test concentrations, not given here; some values may only mark the edge of a range.

Experiments:
Experiment in all cases: NCI tumour cell line growth inhibition, 48 h
786-0 renal = system: 786-0 renal
A498 renal = system: A498 renal
A549 NSCLC = system: A549 NSCLC
CAKI-1 renal = system: CAKI-1 renal
CCRF-CEM leukemia = system: CCRF-CEM leukemia
COLO 205 colon = system: COLO 205 colon
DLD-1 colon = system: DLD-1 colon
DMS 114 small cell lung = system: DMS 114 small cell lung
DMS 273 small cell lung = system: DMS 273 small cell lung
DU-145 prostate = system: DU-145 prostate
EKVX NSCLC = system: EKVX NSCLC
HCC-2998 colon = system: HCC-2998 colon
HCT-116 colon = system: HCT-116 colon
HCT-15 colon = system: HCT-15 colon
HL-60(TB) leukemia = system: HL-60(TB) leukemia
HOP-18 NSCLC = system: HOP-18 NSCLC
HOP-62 NSCLC = system: HOP-62 NSCLC
HOP-92 NSCLC = system: HOP-92 NSCLC
HS 578T breast = system: HS 578T breast
HT29 colon = system: HT29 colon
IGROV1 ovarian = system: IGROV1 ovarian
K-562 leukemia = system: K-562 leukemia
KM12 colon = system: KM12 colon
LOX IMVI melanoma = system: LOX IMVI melanoma
M14 melanoma = system: M14 melanoma
M19-MEL melanoma = system: M19-MEL melanoma
MALME-3M melanoma = system: MALME-3M melanoma
MCF7 breast = system: MCF7 breast
MDA-MB-231 breast = system: MDA-MB-231 breast
MOLT-4 leukemia = system: MOLT-4 leukemia
NCI-H226 lung = system: NCI-H226 lung
NCI-H23 lung = system: NCI-H23 lung
NCI-H460 lung = system: NCI-H460 lung
NCI-H522 lung = system: NCI-H522 lung
NCI/ADR-RES ovarian = system: NCI/ADR-RES ovarian
OVCAR-3 ovarian = system: OVCAR-3 ovarian
OVCAR-4 ovarian = system: OVCAR-4 ovarian
OVCAR-8 ovarian = system: OVCAR-8 ovarian
P388 leukemia = system: P388 leukemia
P388/ADR leukemia = system: P388/ADR leukemia
RPMI-8226 leukemia = system: RPMI-8226 leukemia
RXF 393 renal = system: RXF 393 renal
SF-268 CNS = system: SF-268 CNS
SF-295 CNS = system: SF-295 CNS
SF-539 CNS = system: SF-539 CNS
SK-MEL-2 melanoma = system: SK-MEL-2 melanoma
SK-MEL-28 melanoma = system: SK-MEL-28 melanoma
SK-MEL-5 melanoma = system: SK-MEL-5 melanoma
SK-OV-3 ovarian = system: SK-OV-3 ovarian
SN12C renal = system: SN12C renal
SN12K1 renal = system: SN12K1 renal
SNB-19 CNS = system: SNB-19 CNS
SNB-75 CNS = system: SNB-75 CNS
SNB-78 CNS = system: SNB-78 CNS
SW-620 colon = system: SW-620 colon
U251 CNS = system: U251 CNS
UACC-62 melanoma = system: UACC-62 melanoma
UO-31 renal = system: UO-31 renal

With CO[C@H](/C(C)=C/C=C/C(C)=C/c1coc(C)n1)[C@H](C)[C@H]1C[C@@H](O)[C@@]2(C)O[C@H]2/C=C/[C@@H](C)[C@@H]2C[C@@H](CC(=O)O2)C[C@H]2O[C@@H]2C(=O)O1 the TGI (786-0 renal) was 0.624 nM and 10.8 µM, the TGI (A498 renal) was 797 nM [mean of 2 tests] and 32.3 nM [mean of 6 tests] and 0.00586 nM [mean of 7 tests] and < 31.6 nM [mean of 8 tests] and the TGI (A549 NSCLC) was 0.5 nM, 0.78 nM, 1.26 µM, 50 µM, 48.6 µM. The TGI (CAKI-1 renal) was 0.5 nM [1 test] and 50 µM [mean of 2 tests] and 586 nM [mean of 5 tests] and 0.068 nM, 163 nM [mean of 6 tests], the TGI (CCRF-CEM leukemia) was < 5e-05 nM [1 test] and 500 nM [mean of 2 tests] and 367 nM [mean of 5 tests] and 3.92 µM [mean of 7 tests] and 0.144 nM [mean of 9 tests] and the TGI (COLO 205 colon) was 0.5, 0.00708, 18.1, 239, 27 nM. For the same compound, the TGI (DLD-1 colon) was 0.5 nM, 0.251 nM, 911 nM, 35.3 µM, 12 µM, the TGI (DMS 114 small cell lung) was 0.0872 nM, 0.00398 nM, 23.2 nM, < 215 nM and the TGI (DMS 273 small cell lung) was 0.5, 91.3, 569, 18.1 nM. For the same compound, the TGI (DU-145 prostate) was > 100 µM [mean of 2 tests] and 0.428 nM [mean of 4 tests], the TGI (EKVX NSCLC) was 0.873 nM, 526 nM, 50 µM, 65.1 µM and the TGI (HCC-2998 colon) was 0.000719, 2.04, 603, 101 nM. The TGI (HCT-116 colon) was 0.5 nM [1 test] and 11.4 µM [mean of 3 tests] and 1.52 µM [mean of 5 tests] and 1.11 µM [mean of 6 tests] and 0.266 nM [mean of 8 tests], the TGI (HCT-15 colon) was 0.5 nM [1 test] and 4.36 µM [mean of 3 tests] and 22.4 nM, 6.02 µM [mean of 6 tests] and 0.143 nM [mean of 9 tests] and the TGI (HL-60(TB) leukemia) was < 5e-05 nM [1 test] and 228 nM [mean of 7 tests] and 0.000107 nM [mean of 8 tests]. For the same compound, the TGI (HOP-18 NSCLC) was 5 µM, > 50 µM, 73 µM, the TGI (HOP-62 NSCLC) was 33.4 µM [mean of 2 tests] and 2.68 nM [mean of 4 tests] and 0.0266 nM [mean of 6 tests] and 57.3 nM [mean of 8 tests] and the TGI (HOP-92 NSCLC) was 0.5 nM [1 test] and 1.48 µM [mean of 2 tests] and 0.776 nM [mean of 4 tests] and 0.087 nM [mean of 5 tests] and 215 nM [mean of 6 tests]. The TGI (HS 578T breast) was 0.0172 nM and > 68.8 µM, the TGI (HT29 colon) was 0.5 nM [1 test] and 23.2 nM [mean of 3 tests] and 0.000445 nM [mean of 7 tests] and the TGI (IGROV1 ovarian) was 50 µM [mean of 3 tests] and 793 nM [mean of 5 tests] and 12.2 µM [mean of 8 tests] and 0.863 nM [mean of 9 tests]. The TGI (K-562 leukemia) was 0.5 nM, 5 µM, 23.2 µM, 30.1 µM, the TGI (KM12 colon) was 0.5 nM [1 test] and 1.91 µM [mean of 2 tests] and 2.07 µM [mean of 4 tests] and 50.7 nM [mean of 6 tests] and 0.047 nM [mean of 8 tests] and the TGI (LOX IMVI melanoma) was 0.5 nM [1 test] and 23.2 µM [mean of 3 tests] and 877 nM, 3.44 µM [mean of 5 tests] and 0.3 nM [mean of 6 tests]. For the same compound, the TGI (M14 melanoma) was 0.63 nM and 3.52 µM, the TGI (M19-MEL melanoma) was 0.5 nM, 5 µM, 50 µM, 20.6 µM and the TGI (MALME-3M melanoma) was 50 nM, 50 µM, 6.55 µM. For the same compound, the TGI (MCF7 breast) was 0.5 nM [1 test] and 11.4 µM [mean of 3 tests] and 26.1 µM [mean of 5 tests] and 1.61 µM [mean of 6 tests], the TGI (MDA-MB-231 breast) was 17.7 nM [1 test] and 0.034 nM [mean of 4 tests] and the TGI (MOLT-4 leukemia) was < 5e-05 nM [1 test] and 108 nM [mean of 3 tests] and 50 nM [mean of 4 tests] and 7.77 µM [mean of 7 tests] and 0.305 nM [mean of 9 tests]. The TGI (NCI-H226 lung) was 4.9 µM [mean of 2 tests] and 14.6 nM [mean of 3 tests] and < 12.2 nM [mean of 7 tests] and 0.00259 nM [mean of 9 tests], the TGI (NCI-H23 lung) was 50 nM, 500 nM [mean of 2 tests] and 907 nM [mean of 4 tests] and 0.156 nM [mean of 8 tests] and the TGI (NCI-H460 lung) was 0.5 nM [1 test] and 579 nM [mean of 3 tests] and 16.3 nM [mean of 5 tests] and 145 nM [mean of 7 tests] and 0.131 nM [mean of 8 tests]. For the same compound, the TGI (NCI-H522 lung) was < 5e-05 nM [1 test] and 500 nM [mean of 2 tests] and 0.000692 nM [mean of 5 tests] and 2.32 nM [mean of 6 tests], the TGI (NCI/ADR-RES ovarian) was 0.5 nM [1 test] and 11.1 nM [mean of 3 tests] and > 80.4 µM [mean of 4 tests] and 14.8 nM [mean of 5 tests] and 0.0718 nM [mean of 9 tests] and the TGI (OVCAR-3 ovarian) was 0.5 nM [1 test] and 500 nM [mean of 2 tests] and < 89.4 nM [mean of 4 tests] and 3.16 nM [mean of 5 tests]. The TGI (OVCAR-4 ovarian) was 0.474 nM, 419 nM, 50 µM, 60.7 µM, the TGI (OVCAR-8 ovarian) was 0.5 nM [1 test] and 500 nM [mean of 2 tests] and 256 nM [mean of 5 tests] and 1.93 µM [mean of 7 tests] and 0.0271 nM [mean of 9 tests] and the TGI (P388 leukemia) was < 5e-05 nM [1 test] and 24.4 nM [mean of 2 tests] and 1.12 µM [mean of 3 tests] and 0.066 nM [mean of 4 tests] and 107 nM [mean of 5 tests]. For the same compound, the TGI (P388/ADR leukemia) was 0.5 nM [1 test] and 809 nM, 700 nM [mean of 2 tests] and 142 nM [mean of 4 tests] and 0.0253 nM [mean of 5 tests], the TGI (RPMI-8226 leukemia) was < 5e-05 nM [1 test] and 1.26 µM [mean of 3 tests] and 1.97 µM [mean of 4 tests] and 10.9 µM [mean of 7 tests] and the TGI (RXF 393 renal) was < 5e-05 nM, 50 µM [1 test] and 229 nM [mean of 5 tests] and 0.000696 nM [mean of 6 tests]. The TGI (SF-268 CNS) was 50 µM [mean of 2 tests] and 3.47 µM [mean of 5 tests] and 13.1 µM [mean of 8 tests] and 0.392 nM [mean of 9 tests], the TGI (SF-295 CNS) was 0.5 nM [1 test] and 500 nM [mean of 2 tests] and < 46.4 nM [mean of 6 tests] and 0.000575 nM [mean of 8 tests] and the TGI (SF-539 CNS) was < 5e-05 nM [1 test] and 5.15 nM [mean of 3 tests] and 0.000149 nM [mean of 9 tests]. The TGI (SK-MEL-2 melanoma) was 0.0193 nM, 29.2 nM, 50 µM, 187 nM, the TGI (SK-MEL-28 melanoma) was 50 µM [mean of 3 tests] and 5 µM [mean of 4 tests] and > 68.6 µM [mean of 6 tests] and the TGI (SK-MEL-5 melanoma) was 0.5 nM [1 test] and 3.88 nM, 2.32 µM [mean of 3 tests] and 0.00132 nM [mean of 6 tests]. For the same compound, the TGI (SK-OV-3 ovarian) was 0.279 nM, 126 nM, 595 nM, 2.79 µM, the TGI (SN12C renal) was 1.84 µM [mean of 3 tests] and 1.98 µM [mean of 5 tests] and 29.4 µM [mean of 8 tests] and 0.285 nM [mean of 9 tests] and the TGI (SN12K1 renal) was 0.5 nM [1 test] and 500 nM [mean of 2 tests]. For the same compound, the TGI (SNB-19 CNS) was 2.32 µM [mean of 3 tests] and 1.03 µM, 4.26 µM [mean of 6 tests] and 0.192 nM [mean of 9 tests], the TGI (SNB-75 CNS) was 0.0464 nM, 500 nM, 150 nM, 8.9 µM and the TGI (SNB-78 CNS) was 0.5 nM [1 test] and 46.6 µM [mean of 2 tests] and 232 nM, 26.4 µM [mean of 3 tests]. For the same compound, the TGI (SW-620 colon) was 0.5 nM [1 test] and 50 µM [mean of 3 tests] and 2.42 µM [mean of 5 tests] and 63.2 µM [mean of 8 tests], the TGI (U251 CNS) was 0.5 nM [1 test] and 575 nM [mean of 3 tests] and 1.83 µM [mean of 5 tests] and 0.139 nM, 1.11 µM [mean of 6 tests] and the TGI (UACC-62 melanoma) was 0.356 nM, 232 nM, 50 µM, 469 nM. The TGI (UO-31 renal) was 5 µM, 50 µM [mean of 3 tests] and 54.5 µM [mean of 8 tests].
